# The supplement of paper PMC10338343
# ± gives the standard deviation. Over roughly 6,600 sequences, “pre-steady-state target cleavage rate” has its median near 0.07; the highest 2% begin near 0.72. Only a part is listed here, and it is no random draw.
# System: MIWI (PIWIL1) piRISC loaded with Kctd7 piRNA (30 nt)
# Assay: pre-steady-state target cleavage rate (min^-1); MIWI and MILI are mouse PIWI proteins and EfPiwi is from a freshwater sponge; tags in brackets are library labels; higher = faster piRNA-guided slicing of the target
# Details: guide: Kctd7 piRNA 5'p-UGUUAAUCUCUCAGAGAAGGUGACAGUGAU; auxiliary factor: 500 nM mouse GTSF1
# Method: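 Cleave-'n-Seq: a library of target RNAs (target site embedded in constant flanks, ACAGCATTCCGCGTTAGTGATATCCG... 5' flank; DNA-blocked outside the site) at 0.1 nM was incubated with 1 nM active mouse MILI or MIWI piRISC (synthetic 5'-monophosphorylated piRNA guide) with or without 500 nM mouse GTSF1 at 33 °C for 1 min to 16 h. Uncleaved targets were sequenced and normalised to non-target controls, and the pooled three trials were fitted to a burst-and-steady-state model to give the pre-steady-state cleavage rate (min^-1; k3 is constrained to at most 1e-4). Sequence is the target site only; target names encode pairing extent (gX:gY) and contiguous / 1-mismatch / 2-mismatch / bulge geometry. Fits with R² ≤ 0 are excluded.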
row,Sequence,pre-steady-state target cleavage rate
1,UAGACUGUCACCUUCUCUGACAGUUUAACA,0.00392 ± 0.003
2,UUCACUGUCACCUUUCUCUGAGAGAUUAACA,0.581 ± 0.026
3,UAGACACACACCUUCUCUGAGAGAUUUUGA,0.0522 ± 0.017
4,UAGUGAGUCACCAUCUCUGAGAGAUUAACA,0.673 ± 0.046
5,UAGUCUGUCACCUUCUCUGAGAGAAUAUCA,0.101 ± 0.027
6,UAGUGUGUCUCCUACUCUGAGAGAUUAACA,0.211 ± 0.018
7,UAGUGAGACAGCUUCUCUGAGAGAUUAACA,0.226 ± 0.014
8,UAGUGACACACCUUCUCUCUGAGAUUAACA,0.00464 ± 0.0031
9,UACAGACUCACCUUCUCUGAGAGAUUAACA,0.587 ± 0.045
10,UAGUGACUCACCUUCUCUGUGAGAUUUACA,0.0412 ± 0.0086
11,UACACUGUCACCUUCUCUGAGAUAUUAACA,0.353 ± 0.042
12,UAGUGAGUGACCUUCUCUGAGAGAUUAUCA,0.154 ± 0.021
13,UAGUGACAGUGCUUCUCUGAGAGAUUAGACA,0.00704 ± 0.0024
14,UAGUCACACACCUUCUCUGAGAGAUUAUGA,0.0796 ± 0.016
15,UAGUGAGUCACCUUCUCUGAGAGAUAACA,0.0971 ± 0.025
16,UAGUCUGUCACCUUCUCUGAGAGAAAUUGA [g7:g26:cont:t1A],0.024 ± 0.01
17,UAGUGACACACCUUCAUCUGAGAGAUUAACA,0.0163 ± 0.0059
18,UAGUGUGUCACCUUCUCUGUGAGAUUUUGA,0.009 ± 0.0042
19,UAGUGACAGUGGAAGAGACAGUGAUUAAGA,< 0.0001
20,UUCACUGUCACCUUCUCUGAGUCAUUAUGA,0.00338 ± 0.0028
21,UUCACUGUCACCUUCUCUGAGAGAUGUAACA,0.324 ± 0.047
22,UAGACUGUCACCUUCUCUGACGAGAUUAACA,0.00549 ± 0.0027
23,UUCACUGUCACCUUCUUUGAGAGAUUAACA,0.564 ± 0.026
24,UAGUGACUCACCUUCUCUGAGAGAUUAAGA,0.194 ± 0.031

row,Sequence,pre-steady-state target cleavage rate
1,UAGUGACAGACCUUCUCUGAGAGAUGAACA,0.0316 ± 0.0088
2,UAGUGAGUCACCUUCUCUGAGGAUUAACA,0.00984 ± 0.0056
3,UAGUGACAGUGCUUCUCUGACAGUUUAACA,< 0.0001
4,UAGUCUGUCACCUUCUCUGAGAGAUAUUCA,0.211 ± 0.045
5,UAGUGACACACCUUCUCUGAGAGAUAAUCA,0.074 ± 0.02
6,AUCACUGUCACCUUGACUGAGAGAUUAACA,0.338 ± 0.058
7,UAGUCUGUCACCUUCGUCUGAGAGAUUAACA,0.0668 ± 0.015
8,UAGUGUGUCACCUUCUCUGAGAGAUUAACU [g2:g25:cont:t1U],0.347 ± 0.035
9,UUGUCUGUCACCUUCUCUGAGAGAUAUUGA,0.0211 ± 0.008
10,UAGACUGUCACCUUGUCUGUGAGAUUAACA,0.152 ± 0.013
11,UAGACUGUCACCUUCUCUCAGAGAAUAACA,0.0205 ± 0.0044
12,UACACACACACCUUCUCUGAGAGAUUAUGA,0.0717 ± 0.018
13,UAGUCUGUCACCUUCUCUGGGAGAUUAACA,0.485 ± 0.018
14,UAGUGACAGUCCUUCUCUGAGAGAAAUAGA,< 0.0001
15,UACACUGUCACCUUCUCUGAGAGUUUAUCA,0.137 ± 0.041
16,UAGUGACACACCUUCGUCUGAGAGAUUAACA,0.0126 ± 0.004
17,AUCACUGUCACGUUCUCUGAGAGUUUAACA,0.125 ± 0.018
18,UAGUGACUCACCUUCUCUGAGAGAUUAAUCA,0.247 ± 0.03
19,UAGUGACAGACCUUCUCUGAGAGUUUUACA,0.00492 ± 0.0047
20,UAGUGAGUCACCUUCUCUGAGAGAUAUUCA,0.0772 ± 0.021
21,UAGACUGUGACCUUCUCUGAGAGAUUAAGA,0.204 ± 0.029
22,UUCACUGUCACCUUCUCUGAGAGUAUAUGA,0.0917 ± 0.025
23,UAGUGACAGUGGAAGAGUGAGAGAAAAACA,< 0.0001
24,UAGUCUGUCACGUUCUCUGAGUGAUUAACA,0.0123 ± 0.0026

row,Sequence,pre-steady-state target cleavage rate
1,UAGUCUGACACCUUCUCUGAGAGUUUAACA,0.211 ± 0.032
2,UAGUGUGUCUCCUUCUCUGAGAGAUAUUGA,0.00519 ± 0.0043
3,UAGUGACUCACCUUCUCGAGAGAUUAACA,0.0114 ± 0.0051
4,UUGUCUGUCACCUUCUCUGAGAGAUUUUGA,0.034 ± 0.013
5,AUCACUGUCACCUUCUCUGAGAGUAAAUGA,0.0743 ± 0.027
6,UACACUGUCACCUUCUCUGAGAGUUUUUGA,0.119 ± 0.036
7,AUCACUGUCACCAUCUCUGACAGAUUAACA,0.186 ± 0.022
8,UAGUGAGUCACCUACUCUGAGAGAUUAUCA,0.244 ± 0.051
9,UACUCUGUGACCUUCUCUGAGAGAUUAACA,0.58 ± 0.026
10,UAGUGAGUCACCUUCCUCUGAGAGAUUAACA,0.217 ± 0.019
11,UAGUGAGUCUCCUUCUCUGAGAGAUUAACA,0.262 ± 0.023
12,AUCACUGUCACCUUCUCUGAGGAGAUUAACA,0.022 ± 0.0084
13,UUCACUGUCACCUUCUCUGAGAGACUAACA,0.282 ± 0.032
14,UAGUGAGUCACCUUCUCUCAGACAUUAACA,0.0358 ± 0.0085
15,UACACUGUCACCUUCUCUCACAGAUUAACA,0.0406 ± 0.011
16,AUCACUGUCACCUUCUCUGAGAGAUUACA,0.329 ± 0.051
17,UUCACUGUCACGUUCUCAGAGAGAUUAACA,0.172 ± 0.013
18,UAGACUGUCACCUUCACAGAGAGAUUAACA,0.0493 ± 0.0097
19,UAGUCUGUCACGAUCUCUGAGAGAUUAAGA,0.0282 ± 0.0053
20,UAGUGACAGUCCUUCUCUGAGAGUAUUAACA,0.0116 ± 0.0023
21,UUCUCUGUCACCUUCACUGAGAGAUUAACA,0.392 ± 0.021
22,UUCACUGUCACCUUCUCUGUGAGAUAAACA,0.147 ± 0.02
23,UUCACUGUCACCUUCUCUGAGAGAUUAAGCA,0.228 ± 0.029
